From PubChem BioAssay AID761 (NMMLSC, 2007)
The campaign covered roughly 190,000 compounds. About 400 (0.21%) were called active. This list was built around the results that the source calls inconclusive (neither active nor inactive); the mix of calls is not that of the screen.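 How the source made its calls: active means percent activity GTP binding at least 20 points away from the 100% baseline, either down as inhibitor or up as activator; inconclusive means compound flagged as likely green fluorescent from well-wide comparison; inactive means the rest.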

target: Cell division control protein 42 homolog (Homo sapiens) (UniProt P60953); test: wildtype Cdc42 fluorescent GTP binding changes, either direction – biochemical, multiplex bead flow cytometry, Bodipy-GTP, primary screen (AID 761); details: GST-Cdc42 beads, at 10 µM, actives lie on both sides;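 further: median bead fluorescence of bound Bodipy-FL-GTP at 100 nM; 0% = excess unlabeled GTP control and 100% = no compound control; below 100% means less GTP binding so inhibitor and above means activator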
UniProt P60953, sequence (P60953 whole entry, looked up): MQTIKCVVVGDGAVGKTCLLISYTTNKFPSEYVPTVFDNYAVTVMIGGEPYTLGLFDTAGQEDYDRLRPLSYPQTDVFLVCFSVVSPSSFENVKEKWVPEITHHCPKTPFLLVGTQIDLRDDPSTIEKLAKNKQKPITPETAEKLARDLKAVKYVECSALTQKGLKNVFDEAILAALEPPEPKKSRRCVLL

| Structure (SMILES) | percent activity (GTP binding) |
| --- | --- |
| O=C(/C=C/c1ccccc1)N1CCC(Cc2ccccc2)CC1 | inconclusive: 92% |
| CCC(=O)Nc1c(C#N)c2nc3ccccc3nc2n1C1CCCCC1 | inconclusive: 110% |
| NS(=O)(=O)c1ccc(NC(=O)C2C3C=CC(C3)C2C(=O)O)cc1 (stereo unspecified) | inconclusive: 96% |
| Cc1ccc(N2CC(O)=C(c3ccccc3)C2=N)cc1 | inconclusive: 94% |
| COc1cccc(Nc2c(F)c(F)c(F)c(F)c2C(=O)O)c1 | active: 123% [activator] |
| CCCCCCn1c(=O)[nH]c2nc3cc(N)c(C)cc3nc2c1=O | inconclusive: 87% |
| O=C(NCCCN1CCCCC1)c1ccc2c(c1)NC(=O)C(N1CCOCC1)S2 (stereo unspecified) | inconclusive: 93% |
| CCOCc1c(C(=O)NC2CCCCCC2)oc2ccccc12 | inconclusive: 93% |
| CCOC(=O)N1CCN(C(=S)Nc2cccc(C)c2C)CC1 | inconclusive: 105% |
| COc1ccc(C2(CNC(=O)Cc3ccc(OC)c(OC)c3)CCOCC2)cc1 | inconclusive: 93% |
| COc1ccccc1-c1cc(C(F)(F)F)nc(N2CCN(c3ccccc3)CC2)n1 | inconclusive: 107% |
| O=C(c1nnsc1S(=O)(=O)c1ccc(Cl)cc1)N1CCOCC1 | inactive: 105% |
| Cc1cccc2sc(NC(=O)CSCc3ccccc3)nc12 | inconclusive: 89% |
| COc1coc(C(O)C[N+](=O)[O-])cc1=O (stereo unspecified) | inactive: 102% |
| CCOC(=O)C1(Cc2cccc(F)c2)CCN(Cc2nc(CC)[nH]c2C)CC1 | inconclusive: 117% |
| CN(C)c1ccc(/C=C/C(=O)c2cccc(Br)c2)cc1 | inconclusive: 117% |
| Cc1cccc2cc(CN(Cc3ccc(F)cc3)C(=O)N3CCOCC3)c3nnnn3c12 | inconclusive: 107% |
| COCCN(C(=S)Nc1ccc(OC)cc1)C1CCN(C(C)C)CC1 | inactive: 101% |
| Cc1nn(C)cc1C1C(C#N)=C(N)N(c2ccc(F)c([N+](=O)[O-])c2)C2=C1C(=O)CCC2 (stereo unspecified) | inactive: 103% |
| Cc1cc(C(C)(C)C)cc(S(=O)(=O)Nc2cccc(C(=O)O)c2)c1C | inconclusive: 96% |
| CCn1nc(NC(=O)c2ccncc2)c2cc3cccc(C)c3nc21 | inconclusive: 106% |

| Structure (SMILES) | percent activity (GTP binding) |
| --- | --- |
| O=C(c1ccc(F)cc1)C(C(=O)N1CCCCC1)n1ccccc1=O (stereo unspecified) | inactive: 98% |
| Brc1[nH]nc2ccccc12 | inconclusive: 91% |
| Cc1cccc(NCc2ccc(O)c3ncccc23)c1C | inconclusive: 78% |
| CC(Sc1nc2ccccc2s1)C(=O)c1c(N)n(C)c(=O)n(C)c1=O (stereo unspecified) | inconclusive: 95% |
| OCCC1CN(Cc2ccccc2O)CCN1CCc1ccccc1 (stereo unspecified) | active: 16% |
| Nc1ccc(-c2sc(N)nc2-c2ccccc2)cc1 | inactive: 97% |
| COCCNC(=S)N/N=C1\CC(C)CC(C)(C)C1 (stereo unspecified) | inactive: 97% |
| COc1ccc(N(C(=O)c2ccc(Br)o2)C2C=CS(=O)(=O)C2)cc1 (stereo unspecified) | inconclusive: 101% |
| CCCCCCCCSc1nnc2[nH]c(=O)cc(N)n12 | active: 69% |
| COc1ccc(C(C)=O)cc1COC(=O)c1cccnc1SC | inactive: 94% |
| COc1cccc(N=Nc2c(N)[nH]n3c(=O)c4c(nc23)CCCC4)c1 | inconclusive: 61% |
| Cc1ccc(N=Nc2c(N)[nH]n3c(=O)cc(-c4ccccc4)nc23)cc1 | active: 79% |
| CSCCC(NC(=O)C1CCC(C)CC1)C(=O)N1CCN(c2ccccn2)CC1 (stereo unspecified) | inconclusive: 110% |
| CC1CCN(CCCNC(=O)COc2cc(=O)n(C)c3ccccc23)CC1 | inconclusive: 108% |
| COc1cc(NS(=O)(=O)c2ccc(Nc3nc(-c4ccccc4)cs3)cc2)nc(OC)n1 | active: 71% |
| Cc1noc(C)c1C(c1ccccc1)S(=O)(=O)c1ccccc1 (stereo unspecified) | inconclusive: 103% |
| Cc1cc(NCc2ccccn2)n2c(nc3ccccc32)c1C#N | active: 72% |
| COc1ccc(N2CCN(C(=O)c3cccnc3SCc3cccc(Br)c3)CC2)cc1 | inactive: 97% |
| CCOC(=O)c1ccc(NC(=O)c2cc3ccccc3o2)cc1 | inconclusive: 102% |
| COc1cc([N+](=O)[O-])cc(/C=N/N(CCC#N)C(C)=O)c1O | inactive: 92% |
| COc1ccccc1S(=O)(=O)CC(O)COc1ccc(C#N)cc1 (stereo unspecified) | inactive: 100% |

| Structure (SMILES) | percent activity (GTP binding) |
| --- | --- |
| CS(=O)(=O)N(Cc1ccc(Cl)cc1)c1ccc(C(=O)NCCC2=CCCCC2)cc1 | inconclusive: 106% |
| CC(Oc1ccccc1)C(=O)Nc1cccc(-c2nc3ccccc3[nH]2)c1 (stereo unspecified) | inconclusive: 96% |
| O=C(Nc1ccc(N2C(=O)CCC2=O)cc1Cl)c1cccs1 | inactive: 102% |
| Cc1cccc(NC2=NCC(=O)N2Cc2ccccc2)c1 | inconclusive: 103% |
| Cc1nc(C)c(-c2csc(Nc3cccnc3)n2)s1 | inconclusive: 93% |
| CS(=O)(=O)N1CCC(C(=O)Nc2ccc(Cl)c(Cl)c2)CC1 | inconclusive: 93% |
| O=Cc1cc(N=Nc2cccc(C(=O)O)c2)ccc1O | inconclusive: 90% |
| CNC(=S)N/N=C/c1cn(Cc2c(F)cccc2Cl)c2ccccc12 | inconclusive: 101% |
| O=C(NCc1ccco1)c1cnn2c(C(F)F)cc(-c3ccccc3)nc12 | inactive: 97% |
| O=C(/C=C/c1ccccc1[N+](=O)[O-])OC1CCCCC1=O (stereo unspecified) | inactive: 97% |
| COc1ccc(C2Nc3ccccc3C(=O)N2NS(=O)(=O)c2ccccc2)cc1 (stereo unspecified) | inactive: 97% |
| O=C(O)C1CSC(c2coc3ccccc3c2=O)N1 (stereo unspecified) | inactive: 96% |
| CCOC(=O)CSc1nc(NCc2ccco2)c2ccccc2n1 | inconclusive: 103% |
| O=C(O)/C=C\C(=O)NCc1cccnc1 | inactive: 93% |
| CCOc1ccc(CCNC(=O)c2cc3ccccn3n2)cc1OCC | inactive: 99% |
| COc1ccc(S(=O)(=O)N(Cc2cc3ccc(OC)cc3[nH]c2=O)CC2COCCO2)cc1 (stereo unspecified) | inconclusive: 109% |
| O=C(/C=C/c1ccc(Cl)cc1)Nc1ccc(S(=O)(=O)Nc2ncccn2)cc1 | inactive: 98% |
| CCOc1ccc(N(CC(=O)NCCc2ccc(OC)cc2)S(C)(=O)=O)cc1 | inactive: 100% |
| Nc1c(S(=O)(=O)c2ccccc2)c2nc3ccccc3nc2n1C1CC1 | inactive: 82% |
